Measured values taken from publication PMC3797589.
No constants are given. Whether binding was seen depends on the method and setting. In cells and extracts the contact can be indirect. Some entries that bind do so weakly or less than the wild type.

Protein sequences, listed by entry. Tags and fused reporters are not part of them. Lines headed by an entry give the natural chain unless they say otherwise; changes in a name come on top.
UniProt Q07817: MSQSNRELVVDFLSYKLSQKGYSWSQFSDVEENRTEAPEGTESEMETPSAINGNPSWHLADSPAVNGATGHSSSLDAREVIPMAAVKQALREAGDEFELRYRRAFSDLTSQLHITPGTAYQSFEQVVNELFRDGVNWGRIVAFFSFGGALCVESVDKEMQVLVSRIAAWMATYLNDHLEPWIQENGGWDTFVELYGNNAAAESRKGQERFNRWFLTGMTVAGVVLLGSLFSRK
UniProt P10415: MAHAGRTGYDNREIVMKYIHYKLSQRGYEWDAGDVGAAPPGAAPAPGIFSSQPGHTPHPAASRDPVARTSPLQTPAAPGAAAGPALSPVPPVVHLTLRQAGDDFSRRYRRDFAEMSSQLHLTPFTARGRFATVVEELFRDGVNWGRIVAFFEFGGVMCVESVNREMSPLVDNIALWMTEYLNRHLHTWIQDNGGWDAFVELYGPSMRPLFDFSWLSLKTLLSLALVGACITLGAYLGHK
UniProt P38646: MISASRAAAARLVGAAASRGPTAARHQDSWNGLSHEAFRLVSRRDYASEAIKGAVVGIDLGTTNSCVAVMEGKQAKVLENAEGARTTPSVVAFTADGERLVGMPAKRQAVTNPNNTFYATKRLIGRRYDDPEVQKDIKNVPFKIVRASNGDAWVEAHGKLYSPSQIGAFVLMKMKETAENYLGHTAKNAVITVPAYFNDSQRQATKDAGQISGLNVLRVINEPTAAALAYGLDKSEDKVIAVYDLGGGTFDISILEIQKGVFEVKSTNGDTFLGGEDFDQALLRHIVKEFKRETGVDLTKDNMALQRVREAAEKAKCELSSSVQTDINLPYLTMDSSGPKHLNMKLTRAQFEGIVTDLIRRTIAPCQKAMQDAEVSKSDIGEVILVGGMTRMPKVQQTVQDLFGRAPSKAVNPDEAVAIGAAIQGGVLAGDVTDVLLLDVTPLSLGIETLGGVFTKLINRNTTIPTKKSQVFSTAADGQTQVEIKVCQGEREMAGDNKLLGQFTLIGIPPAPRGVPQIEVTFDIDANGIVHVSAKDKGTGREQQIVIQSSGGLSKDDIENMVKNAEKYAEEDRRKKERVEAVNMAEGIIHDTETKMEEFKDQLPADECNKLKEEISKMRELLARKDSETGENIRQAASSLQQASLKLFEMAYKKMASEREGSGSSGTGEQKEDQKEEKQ

How the values were obtained:
[1] = target: Bcl-xL (endogenous, U2OS control cells) (human (endogenous in U2OS)) (UniProt Q07817); assay: co-IP; Bcl-xL or Bcl-2 immunoprecipitated from lysates of cells transfected with V5-tagged mortalin (full length or deletion mutants), Nonidet P40 lysis buffer, Western blot with anti-V5 tag antibody
[2] = target: Bcl-2 (endogenous, U2OS control cells) (human (endogenous in U2OS)) (UniProt P10415); assay: as above
[3] = target: V5-tagged full length Bcl-xL (human) (UniProt Q07817); assay: co-IP; Bcl-xL or Bcl-2 immunocomplexes from U2OS lysates (control and overexpressing cells; 250 ug protein in Nonidet P40 lysis buffer, antibody overnight at 4°C, Protein-A/G plus Agarose), Western blot with anti-mortalin antibody
[4] = target: Bcl-xL (endogenous, U2OS control cells) (human (endogenous in U2OS)) (UniProt Q07817); assay: as above

Row | Substance | binding [1] | binding [2] | binding [3] | binding [4]
1 | V5-tagged mortalin deletion mutant, amino acid residues 1–435 (from UniProt P38646 47-435) (domain or fragment) | binds | binds |  | 
2 | V5-tagged mortalin deletion mutant, amino acid residues 390–679 (from UniProt P38646 390-679) (domain or fragment) | no binding | no binding |  | 
3 | V5-tagged mortalin deletion mutant, amino acid residues 310–679 (from UniProt P38646 310-679) (domain or fragment) | binds | binds |  | 
4 | V5-tagged mortalin deletion mutant, amino acid residues 252–679 (from UniProt P38646 252-679) (domain or fragment) | binds | binds |  | 
5 | Mortalin/mtHsp70/PBP74/Grp75 (mot-2) (from UniProt P38646 47-679) |  |  | binds | binds
